Experimental data published in ChEMBL document CHEMBL4888484, “Replenishing the malaria drug discovery pipeline: Screening and hit evaluation of the MMV Hit Generation Library 1 (HGL1) against asexual blood stage Plasmodium falciparum ,using a nano luciferase reporter read-out” (2022).
In all, about 150,000 compounds went through this assay and about 540 (0.36%) showed an effect of 50% or more. The list shows a part of the results.

Test system: Plasmodium falciparum
Assay: Primary screen in NF54 nanoGlo assay, in single point, at 2uM, 72h; a lower Z score goes with more inhibition
Assay type: functional, Erythrocyte
Details: timepoint 72 hour

SMILES | % Inhibition | Z score
Cc1cnc(NCCCN2CCC[C@H](C)C2)nc1 | -7% | 0.85
Cc1cc(N2CCCCC[C@H]2c2noc(C(C)C)n2)n2ncnc2n1 | -14% | 1.73
C[C@H](CCO)NCc1sccc1Cl | 5% | -0.62
Cc1ccnc2nc(C(=O)O[C@@H](C)Cc3ccccc3)nn12 | -12% | 1.93
CCOC(Cn1cc(C(=O)NC[C@H](C)c2ccccc2)nn1)OCC | -6% | 0.74
O=C(Cc1ccn[nH]1)N(CCc1ccccc1)[C@H]1CCOC1 | -5% | 0.64
CN(c1ccc(C(=O)N[C@H]2CCC(=O)NC23CCC3)cc1)C1CCCCC1 | 2% | -0.31
O=C([C@@H]1COc2cc(S(=O)(=O)N3CCN(c4ccccc4)CC3)ccc2O1)N1CCCCCC1 | -14% | 1.56
c1cc(-c2ccc3c(c2)OCCCO3)n2nccc2n1 | -3% | 0.48
Cc1cc([C@@H]2CCCCN2C(=O)c2ccsc2)no1 | 2% | -0.28
O=C(N[C@@H]1CN(C(=O)c2ccco2)CC[C@@H]1CO)c1ccccc1 | -6% | 0.74
c1ccc2c(CNc3ccc4[nH]ncc4c3)cccc2c1 | -8% | 1.47
CC(C)(C)C(=O)N1Cc2cncnc2C1 | -16% | 2.77
O=C(O)[C@@H]1CCCN1Cc1nnnn1-c1ccc(Cl)cc1C(F)(F)F | -12% | 1.34
COc1ccccc1CC(=O)N1CC[C@H](c2ncon2)C1 | -2% | 0.41
CC(C)N(C[C@H]1CCC(=O)N1)S(=O)(=O)Cc1ccc(F)cc1 | -9% | 1.02
CC(=O)N1CCN(CCNc2nc(-c3ccc(Cl)cc3)no2)CC1 | -11% | 1.26
Cn1nncc1S(=O)(=O)N1CCC[C@H](n2cccn2)C1 | 0% | 0
COC1CCCCC1NC(=O)N[C@H](CCO)c1ccccc1 (stereo not given in full) | -7% | 0.77
COc1ccc(C(=O)N(CC(=O)N2CCN(c3ccc(-c4cccc(OC)c4)nn3)CC2)C2CC2)cc1 | -9% | 1.51
CC[C@H]1C=CCN1C(=O)c1cc2c(Cl)cccc2[nH]1 | -4% | 0.65
COC(=O)CN(c1cc(F)cc(F)c1)S(=O)(=O)c1cccn2c(C)nnc12 | -6% | 1.11

SMILES | % Inhibition | Z score
c1ccc(OCCc2nnc3n2CCCC[C@H]3C2CCOCC2)cc1 | 5% | -0.72
CC(C)n1nccc1NS(=O)(=O)Cc1cccc(F)c1 | 30% | -3.37
COc1ccc(OC)c(Cn2ccnc2C(C)C)c1 | -15% | 2.53
COc1cc(OC)c(N2C[C@@H](C(=O)Nc3ccc4nc(C)sc4c3)CC2=O)cc1Cl | 10% | -1.69
C[C@H]1CC[C@@H](C(=O)NCCc2c[nH]c3cc(F)c(Cl)cc23)O1 | -7% | 1.36
COCC(=O)N1CCN([C@H]2CCN(CCc3ccccc3)C2=O)CC1 | -17% | 2.25
Cn1c(=O)c2c(ncn2CC(=O)N2CCN(c3ccccc3O)CC2)n(C)c1=O | -5% | 0.75
N#Cc1ccc(CN(C2CC2)S(=O)(=O)c2cccnc2)cc1 | -9% | 1.26
COc1cc(-c2nc3c(cnn3Cc3ccc(C)o3)[nH]2)cc(Cl)c1O | -3% | 0.43
CCCc1cnc(C)nc1-c1cccc(C(=O)N2CCNC(=O)[C@@H]2CCO)c1 | -13% | 1.87
CCNC(=O)N1C2CCC(C2)C1C(=O)NC1CCCC1 (stereo not given) | -9% | 1.2
CN(Cc1nnc(C2CC2)n1C)C(=O)Cc1ccc2c(c1)CCCO2 | -21% | 2.73
O=C(NC[C@H]1Cn2c(-c3ccc(F)cc3)cnc2CO1)c1ccc(Cl)cc1 | 31% | -3.52
CCOc1ccc(-c2nn(CC(=O)Nc3cccc(C)c3)c3c2cnc2ccccc23)cc1 | -14% | 1.21
COc1cnc(NC(=O)[C@@H]2CCCc3ccccc32)s1 | -5% | 0.51
CCc1nc(NC(=O)N2CCCC(F)(F)CC2)sc1C(C)(C)C | 0% | -0.03
CN(Cc1cnccn1)c1cc(C(F)(F)F)nc(-c2ccncc2)n1 | 7% | -1.42
COc1ncccc1C(=O)N1CCN(Cc2cccc(C)n2)[C@@H](CCO)C1 | -2% | 0.34
CC1CCC(OCC(=O)N2CCN(c3ccc(C(N)=O)cc3)CC2)CC1 (stereo not given) | -17% | 3.61
CC(=O)c1cccc(-n2cnnc2Cn2nc(C)c(C)c2C)c1 | 10% | -1.98
Cc1nc2c(-c3ccc(F)cc3)cnn2c2c1CCC2 | -8% | 1.53
COc1ccc(-c2nccn2-c2ccc(-c3nncn3C)cc2)cc1C(=O)O | 13% | -1.75

SMILES | % Inhibition | Z score
CCc1nc2c(c(=O)n1CC(=O)NCCC(C)C)CN(Cc1ccccc1)CC2 | -16% | 1.82
N#Cc1ccc(COCC2CCN(CC(=O)NC[C@H]3CCCO3)CC2)cc1 | -5% | 0.54
CCOC1CC(CCNC(=O)[C@@H]2CCCN2C(=O)c2ccccn2)C1 (stereo not given in full) | 4% | -0.56
CCOc1ccccc1CCNC(=O)c1ccc([C@H](C)N2CCCCC2)o1 | -2% | 0.42
Oc1nc2ccccc2c(-c2ccccc2)c1-c1cc(-c2ccccc2)c2ccc(Cl)cc2n1 | 2% | -0.27
O=C(OCCc1cccnc1)c1ccc(N2CCCC2)nc1 | -11% | 1.26
COCCN(Cc1cc(OC)cc(OC)c1)C[C@H](O)COCC(C)C | -4% | 0.79
CCN(Cc1nc(-c2ccccn2)no1)Cc1ccc(Cl)s1 | -15% | 1.23
Cc1ccc(NC(=O)Nc2cc(C)ccc2N2CCCN(Cc3cc(F)ccc3F)C2=O)cc1 | -8% | 0.82
Cn1cncc1CCNC(=O)Cc1cc(F)c(F)cc1F | 3% | -0.31
c1cn(-c2ccc(CN3CCN(c4nccs4)CC3)cc2)cn1 | -1% | 0.14
C[C@H](NC(=O)N(Cc1ccccc1F)C1CCC1)c1cnn(C)c1 | 36% | -0.71
COc1ccc(CNC(=O)c2c(C)noc2-c2cccnc2)cc1 | -5% | 0.81
CN(Cc1cscn1)Cc1cc(-c2cccs2)ccc1OCC(=O)N1CCN(c2cccc(C(F)(F)F)c2)CC1 | -7% | 0.92
CCOc1ccc(OCC)c(NS(=O)(=O)c2cc(-c3cnc(C)o3)ccc2OC)c1 | -6% | 1.04
CCCNC(=O)NC(=O)CNc1cc(NC(=O)CC)ccc1Cl | -9% | 1.26
c1ccc(CN2CC(c3nc(-c4ccsc4)no3)C2)cc1 | -12% | 1.33
COc1ccc(COCc2cccc(NCc3nccn3C)c2)cc1 | 27% | -3.09
O=C(CCS(=O)(=O)Cc1cccc(Cl)c1)NCc1ccccc1Cl | -10% | 1.63
O=C1CCC(c2ccccc2)(c2ccccc2)CN1CC1(CO)CCOCC1 | -10% | 1.13
CC1CC(C)CN(c2oc(C3CC3c3ccccc3)nc2C#N)C1 (stereo not given) | 2% | -0.31
Cc1ccc(-n2cc(CCO)cn2)c(N)n1 | 7% | -1.21

SMILES | % Inhibition | Z score
COc1ccc(N[C@H]2CCCN(C(=O)c3ccccc3-c3ccccc3F)C2)cc1OC | -18% | 1.61
CC(C)(O)[C@H]1CCN(C(=O)c2cc(Cl)c[nH]c2=O)C1 | -8% | 1.46
COc1ccc(C(=O)NCc2ccc(OC3CCCC3)c(OC)c2)cc1OC | -22% | 3.47
CC[C@@H]1C(=O)NCCCN1C(=O)Cn1nnnc1C(C)C | -3% | 0.41
CCNC(=O)N1CCC2(CC1)N=C(C1CC1)NC2=O | -7% | 1.28
O=C(Cn1cc(C(F)(F)F)ccc1=O)c1ccc2c(c1)CCC2 | -2% | 0.27
Cc1cc(C)n(C[C@H](C)N2CC(n3nc(C)cc3C)C2)n1 | -3% | 0.25
c1cc(Cn2cccn2)cc(-c2nc([C@H]3CCOC3)no2)c1 | -6% | 1.05
COc1ccc(S(=O)(=O)Nc2nc(C)c(C(=O)N3CCCCC3)s2)cc1 | 17% | -2.29
CCOc1ccc(CCNC(=O)[C@H]2CCCN(S(=O)(=O)c3c(C)n[nH]c3C)C2)cc1OCC | -2% | 0.32
CCS(=O)(=O)N1CCC[C@H](CCc2noc(-c3ccccn3)n2)C1 | -3% | 0.52
COc1ccc(CC(=O)Nc2nc(C3CC3)cs2)cc1OC | -12% | 1.54
CC(=O)[C@@H]1C[C@H](c2nc(-c3cnc4ccccn34)no2)C1(C)C | -9% | 1.54
Cc1nnc(C(C)N2CC(C)Cc3ccccc32)o1 (stereo not given) | -3% | 0.42
CN(C)c1ccc(S(=O)(=O)N2CCC[C@H](C(=O)N3CCCCCC3)C2)cc1 | -10% | 0.98
COc1cc(C(=O)N2CCN(CC3CC3)[C@@H]3CS(=O)(=O)C[C@@H]32)ccc1O | 0% | -0.02
CCc1cnc(NC[C@H]2CC(=O)N(CCOC)C2)nc1 | 0% | -0.06
O=C(NCCOc1ccccc1)NCc1ccsc1 | -10% | 1.19
O=S(=O)(Cc1ccccc1)NCCNc1ccc(-n2cccn2)nn1 | -16% | 1.82
